# PubChem BioAssay AID463254 (National Center for Advancing Translational Sciences (NCATS), 2010)
# The campaign covered roughly 330,000 compounds. About 40 (0.01%) were called active. The shares of active, inactive and inconclusive entries below differ from those in the screen. Calls come from the whole dose curve; as a rule, active = well fitted inhibition curve with a large enough effect; inconclusive = small, poorly fitted or top-dose-only effect, or effect the other way; inactive = flat fitted curve, though single readings scatter. Potencies beside an inconclusive call are fits to weak or partial responses and may not hold up.
# Biological target: Ubiquitin carboxyl-terminal hydrolase 2 (Homo sapiens) (UniProt O75604)
# Experiment: qHTS Assay for Inhibitors of Ubiquitin-specific Protease USP2a Using CHOP2 as the Reporter
# Details: USP2 core, Ub-CHOP2 coupled fluorogenic reporter, 485/531; activity change, negative = inhibition: at 38.3 µM (top of the series)
# Source text: NIH Molecular Libraries Screening Centers Network [MLSCN] NIH Chemical Genomics Center [NCGC] MLSCN Grant: XO1-MH079852-01 PI Name: Nicholson, Ben. Progenra Inc, Malvern, PA NCGC Assay Overview: Homeostasis of cellular proteins is maintained through a combination of synthesis and degradation. The pathway that accounts for the majority of protein degradation is the ubiquitin-proteasomal pathway. Ubiquitin (Ub) is highly conserved in all cells and the generation of a multi-Ub chain typically targets proteins for degradation by the proteasome. However, ubiquitination is highly reversible and dynamic. Deubiquitination, the reverse process, is catalyzed through the action of enzymes referred to as isopeptidases or deubiquitinating enzymes (DUBs). This group of enzymes is collectively responsible for maintaining adequate pools of free ubiquitin and regulating the ubiquitination status of cellular proteins. The class of DUBs referred to as the ubiquitin-specific proteases (USP) family functions endoproteolytically to cleave Ub chains from a wide range of protein substrates. USP2a deubiquitinates fatty acid synthase (FASN) which has recently been identified as an emerging oncology target. To identify inhibitors of USP2a a cell-free assay was employed. […] The reporter enzyme chosen is an enterokinase called CHOP2, which is activated when the Ub is cleaved by USP2. The free and now activated reporter can subsequently act on its reporter substrate. Thus, this coupled assay gives a fluorescent read-out at excitation/emission wavelengths of 485/531. The assay was developed by Progenra, Inc. and has been licensed for sale by LifeSensors, Inc. as Ub-CHOP2-Reporter-Kit (#PR1101).
# NCGC Assay Protocol Summary: The assay buffer, prepared fresh at the day of the assay, contains 20mM Tris-HCl pH 8.0, 2mM CaCl2, 2mM beta-Mercaptoethanol, 0.05% CHAPS. 3ul of 20nM (10nM final) USP2 core, which is stored on ice, is dispensed into a medium-binding black solid Kalypsys 1,536 well plate using the Kalypsys dispenser. The assay plate is then pinned with 23nL compound with the Kalypsys pintool in columns 5-48. The controls are pinned as follows: column 1 two-fold dilutions of 2M NEM in duplicate; column 2 2M NEM (final concentration 38.2mM); column 3&4 DMSO. The assay plate is incubated at RT for 30min. Subsequently, 1.5uL of 100nM (25nM final) Ub-CHOP2 and 1.5uL of 100nM (25nM final) Reporter Substrate (both stored on ice and protected from light) were dispensed into the plate using the Kalypsys dispenser. Plates were read after 60min RT incubation on a ViewLux (Perkin Elmer) plate reader using the following wavelengths Ex 485nm /Em 531nm. Data were normalized to the to AC100 inhibition (NEM). Concentration-response curves were fitted to the normalized data and the concentration-response curves were then classified based on curve quality (r2), response magnitude and degree of measured activity. The time zero reading was used to flag fluorescence artifacts. Keywords: ubiquitination, deubiquitination, proteases, profluorescent, MLSMR, MLPCN, NIH Roadmap, qHTS, NCGC
# Potency is the fitted concentration of half-maximal effect; tags give direction and shape of the fitted curve or compound fluorescence and quenching.
# Sequence of UniProt O75604 (O75604 whole entry, looked up): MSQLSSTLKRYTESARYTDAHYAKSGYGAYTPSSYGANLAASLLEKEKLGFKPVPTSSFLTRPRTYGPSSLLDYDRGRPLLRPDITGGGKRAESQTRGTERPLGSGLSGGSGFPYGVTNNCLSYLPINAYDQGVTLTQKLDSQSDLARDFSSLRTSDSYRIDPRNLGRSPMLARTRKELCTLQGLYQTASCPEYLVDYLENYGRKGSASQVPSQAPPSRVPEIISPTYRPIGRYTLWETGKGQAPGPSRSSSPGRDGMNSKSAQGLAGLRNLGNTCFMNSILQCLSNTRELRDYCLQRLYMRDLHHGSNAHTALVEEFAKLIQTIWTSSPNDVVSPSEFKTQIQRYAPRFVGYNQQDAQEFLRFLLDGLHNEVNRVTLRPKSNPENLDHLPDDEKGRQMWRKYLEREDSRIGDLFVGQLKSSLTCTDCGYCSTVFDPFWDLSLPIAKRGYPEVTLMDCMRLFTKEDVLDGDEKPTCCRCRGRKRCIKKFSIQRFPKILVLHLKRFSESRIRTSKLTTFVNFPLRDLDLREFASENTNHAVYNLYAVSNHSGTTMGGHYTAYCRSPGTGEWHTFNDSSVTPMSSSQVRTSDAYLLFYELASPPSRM
Compound,Potency,"activity change, negative = inhibition"
O=c1oc2c(CN3CCCCC3)c(O)ccc2cc1-c1nc2ccccc2[nH]1,"inconclusive: 10 µM [fluorescent, partial curve]",–
CC1=NN(c2ccccc2)C(=O)/C1=C/c1ccc(Cl)cc1,–,inactive: -4.4%
COC(=O)CSC1=C(C#N)C(=O)NC2(CCCCC2)S1,–,inactive: 4.9%
COc1ccc(Cc2nnc(NS(=O)(=O)c3ccc(NC(C)=O)cc3)s2)cc1,–,inactive: -0.61%
CCOC(=O)c1sc(=S)n(C)c1N,–,inactive: -1.44%
C=CC#CC[N+]1(CC#Cc2ccccc2)CCOCC1,"inconclusive: 28.2 µM [falling, single point]",–
O=C(O)C1Nc2c(O)cccc2C2C=CCC12 (stereo not given),"inconclusive: 28.2 µM [falling, single point]",–
COc1ccc2nc(/N=C(\N)NC(=O)C(C)(C)C)nc(C)c2c1,–,inactive: 3.6%
COc1ccc(-c2nc3cc(NC(=O)Cc4ccc(OC)c(OC)c4)ccc3o2)cc1,"inconclusive: 22.4 µM [falling, single point]",–
O=C(Nc1ccccc1)c1cc([N+](=O)[O-])ccc1Cl,–,inactive: -6.7%
CCOC(=O)c1[nH]c2ccc(OC)cc2c1NC(=O)CCN1CCCC(C)C1 (stereo not given),"inconclusive: 22.4 µM [falling, single point]",–
COC(=O)c1ccc(COc2ccc(/C=C/C(=O)c3ccc(OC)c(CSCC(=O)O)c3)cc2OC)cc1,active: 10 µM,–
COc1ccc(/C=C/c2ccccc2)cc1[C@H]1[C@H]2C=CC[C@@H](C)[C@@H]2C(=O)N1Cc1ccccc1,"inconclusive: 5.01 µM [fluorescent, single point]",–
Cc1ccc(C(=O)NC(=S)Nc2ccc(CN3CCOCC3)cc2)cc1,–,inactive: -1.2%
CCOC(=O)c1cc2c(=O)n3ccccc3nc2n(Cc2ccco2)c1=NC(=O)c1cccnc1,–,inactive: 0.121%
Cc1nnc(-c2ccccc2)c(=O)n1/N=C/c1c(O)ccc2ccccc12,"inconclusive: 10 µM [fluorescent, partial curve]",–
CCCCCCCCCS(=O)(=O)N/N=C/c1cccc([N+](=O)[O-])c1,"inconclusive: 11.2 µM [falling, single point]",–
CCOC(=O)C1CCN(C(=O)COC(=O)c2c(C)c(CC)nc3ccccc23)CC1,"inconclusive: 10 µM [falling, single point]",–
Cn1c(=O)c2c(nc(CN3CCN(C(=O)c4ccco4)CC3)n2CCCc2ccccc2)n(C)c1=O,"inconclusive: 28.2 µM [falling, single point]",–
O=C1OC2(c3ccccc31)c1cc(I)c(O)c(I)c1Oc1c2cc(I)c(O)c1I,"inconclusive: 11.2 µM [fluorescent, partial curve]",–
Cc1c(C(=O)OC2CCCC2)[nH]c2c1C(=O)CC(c1ccco1)C2 (stereo not given),–,inactive: 3.12%
CCCCN1C(=O)/C(=C/C=C2/CC(C)(C)CN2C)SC1=S,"inconclusive: 5.01 µM [fluorescent, full curve, poor fit]",–
Cc1ccc(S(=O)(=O)N2[C@@H](c3ccc(C(C)(C)C)cc3)C(C(=O)O)=CC[C@H]2c2cccc(Cl)c2)cc1,"inconclusive: 28.2 µM [falling, single point]",–
CC(=O)Oc1c(/C=C(\C#N)C(N)=O)[nH]c2ccccc12,"inconclusive: 11.2 µM [fluorescent, single point]",–

Compound,Potency,"activity change, negative = inhibition"
Cc1ccc(NC(=O)CSc2nc(O)cc(=O)n2-c2ccc(C)cc2)cc1,"inconclusive: 22.4 µM [falling, single point]",–
Cc1c(N=C2N=C(NC(=O)c3ccc(F)cc3)c3ccccc32)c(=O)n(-c2ccccc2)n1C,"inconclusive: 28.2 µM [fluorescent, single point]",–
Cc1nc2ccc([N+](=O)[O-])cc2c(=O)n1Cc1ccc(Cl)cc1,–,inactive: 8.08%
COc1ccc(CCNC(=O)c2ccc(S(=O)(=O)N(C)c3ccccc3)cc2)cc1OC,–,inactive: -0.687%
O=C(/C=C/c1cccnc1)c1cccc(O)c1,"inconclusive: 5.01 µM [falling, single point]",–
Cc1ccc(NC(=O)c2onc(C)c2Cl)cc1,"inconclusive: 28.2 µM [falling, single point]",–
O=C(CN1CCOCC1)Nc1ccc(C2CCCCC2)cc1,"inconclusive: 22.4 µM [falling, single point]",–
COc1ccc(NC(=O)C2(c3ccc(NC(=O)c4ccc(OC)cc4)cc3)CCCC2)cc1,–,inactive: -0.592%
CCOc1ccc(C2CC(c3c(O)c4ccccc4oc3=O)=NN2c2ccccc2)cc1OC (stereo not given),"inconclusive: 14.1 µM [fluorescent, single point]",–
COc1cc(C(O)P(=O)(OC(C)C)c2ccc(N(C)C)cc2)cc(OC)c1OC (stereo not given),"inconclusive: 28.2 µM [falling, single point]",–
Cc1cc(O)c(Sc2ncn[nH]2)cc1NS(=O)(=O)c1ccc(Cl)cc1,–,inactive: 0.132%
Cc1cc(NS(=O)(=O)c2ccc(NC(=O)COc3ccccc3C(C)(C)C)cc2)no1,"inconclusive: 11.2 µM [falling, single point]",–
Cc1cc(O)c(C(=O)/C=C/c2cccc([N+](=O)[O-])c2)c(=O)o1,"inconclusive: 20 µM [falling, single point]",–
O=C(Nc1ccc(F)cc1F)N1CCN(C(=O)c2ccco2)CC1,–,inactive: 1.4%
CC(=O)N(CCC(c1ccccc1)c1ccco1)Cc1cccs1 (stereo not given),"inconclusive: 12.6 µM [falling, single point]",–
O=C1CCNc2ccc(-c3ccccc3)cc21,"inconclusive: 11.2 µM [fluorescent, partial curve]",–
CC1CCN(c2ccc3c(c2)S(=O)(=O)c2cccc(C(=O)NC4CC4)c2C3=O)CC1,"inconclusive: 28.2 µM [falling, single point]",–
CCCCCCn1c(=O)[nH]c2nc3cc(N)ccc3nc2c1=O,"inconclusive: 11.2 µM [fluorescent, partial curve]",–
CSc1nnc(SCc2nc3sc(C(=O)O)c(C)c3c(=O)[nH]2)s1,"inconclusive: 12.6 µM [fluorescent, single point]",–
Cc1ccc(C2=N/C(=C\c3c(C)nn(-c4ccccc4)c3N3CCCC3)C(=O)O2)cc1,"inconclusive: 3.55 µM [falling, single point]",–
O=c1oc2ccccc2c2c1C1O[C@](c3ccsc3)(Cc3c1ccc1ccccc31)O2,"inconclusive: 5.01 µM [falling, single point]",–
COc1ccc(C(C)=O)cc1CSc1nc2cc(C(=O)O)ccc2c(=O)n1Cc1ccccc1,–,inactive: 3.67%
CC1(C)CC(=O)C(C=Nc2ccc(C(=O)c3ccccc3)cc2N=CC2=C(O)CC(C)(C)CC2=O)=C(O)C1,"inconclusive: 10 µM [fluorescent, partial curve]",–
CNC(=O)/C(C#N)=C/c1c(N2CC(C)OC(C)C2)nc2ccccn2c1=O (stereo not given),–,inactive: 2.32%

Compound,Potency,"activity change, negative = inhibition"
Cc1ccc(-n2nc(-c3ccccc3)cc2Nc2ccccc2N)cc1,–,inactive: -12.5%
COc1ccc(-c2nc(C#N)c(NCC3CCCO3)o2)cc1OC (stereo not given),"inconclusive: 25.1 µM [falling, single point]",–
Clc1cncc(Cl)c1NNc1c2ccccc2nc2ccccc12,–,inactive: 3.32%
Cc1c(C(=O)NC2CCS(=O)(=O)C2)oc2ccccc12 (stereo not given),–,inactive: 2.49%
Cc1ccc(S(=O)(=O)N2CCOCC2)cc1NC(=O)CN1C(=O)NC(C)(c2ccc(Cl)cc2Cl)C1=O (stereo not given),"inconclusive: 28.2 µM [falling, single point]",–
COc1ccc(NC(=O)CSc2c3c(nc4ccccc24)CCCC3)c(OC)c1,–,inactive: -0.497%
COc1ccccc1C(=O)Oc1ccc2c(c1)O/C(=C\c1ccncc1)C2=O,"inconclusive: 11.2 µM [fluorescent, partial curve]",–
CC(=O)N1N=C(c2ccc(Cl)cc2)CC1c1ccco1 (stereo not given),–,inactive: 2.28%
Cc1ccc(S(=O)(=O)c2c(N)n(CCC(C)C)c3nc4ccccc4nc23)cc1,–,inactive: 2.24%
Cc1ccc2nc(C)c(Cl)c(=O)n2c1,–,inactive: -1.19%
CN1CCN(CCCN2c3ccccc3Sc3ccc(C(F)(F)F)cc32)CC1,inactive,–
CC(Cc1nnc(SCC(=O)O)n1N)c1ccccc1 (stereo not given),"inconclusive: 12.6 µM [fluorescent, partial curve]",–
COc1cc(OC)c(OC)cc1/C=C1\CC(C)C/C(=C\c2cc(OC)c(OC)cc2OC)C1=O (stereo not given),–,inactive: 1.76%
c1ccc2c(c1)OCC(c1nn3c(Cn4nnc5ccccc54)nnc3s1)O2 (stereo not given),–,inactive: -0.112%
O=C(Nc1ccc2nc(-c3ccco3)c(-c3ccco3)nc2c1)N1CCN(c2ccccn2)CC1,"inconclusive: 28.2 µM [falling, single point]",–
CCc1nnc(NC(=O)CSc2nccn2-c2cccc(C)c2)s1,"inconclusive: 20 µM [falling, single point]",–
COc1ccc(C(=O)CN2CCN(S(=O)(=O)c3cccc([N+](=O)[O-])c3)CC2)cc1OC,"inconclusive: 11.2 µM [fluorescent, single point]",–
Cc1ccc([C@@H]2CC=C(C(=O)O)[C@H](c3ccc(C(C)(C)C)cc3)N2S(=O)(=O)c2ccc(C)cc2)cc1,"inconclusive: 28.2 µM [falling, single point]",–
CCCn1c(N2CCN(Cc3cccc(C)c3)CC2)nc2c1c(=O)[nH]c(=O)n2C,"inconclusive: 28.2 µM [falling, single point]",–
Cn1cccc1/C=C1\SC(=S)N(NC(=O)c2ccccc2O)C1=O,–,inactive: 8.43%
Cc1ccc([C@H]2C(C(=O)O)=CC[C@@H](c3ccc(Cl)cc3)N2S(=O)(=O)c2ccc(C)cc2)cc1,"inconclusive: 28.2 µM [falling, single point]",–
C[C@@H]1CN([C@H](C)CO)C(=O)Cc2cc(NS(=O)(=O)c3ccc(Cl)cc3)ccc2O[C@H]1CN(C)Cc1ccc(C(F)(F)F)cc1,"inconclusive: 22.4 µM [falling, single point]",–
